# Laboratory results: PubChem BioAssay AID463173 (ICCB-Longwood Screening Facility, Harvard Medical School, 2010)
# In all, about 52,000 compounds went through this assay and about 1,700 (3.3%) were called active. Cut-off read from the data, not from the text of the source: active = survival mostly below about 52% (no sharp cut-off); inactive = mostly above about 56%. Some of the results follow.
# Tested on: Wild type
# Test: S. aureus survival, RN4220 and DeltatarO strains – OD600, teichoic acid synthesis inhibitors, primary screen (AID 463173)
# Conditions: S. aureus RN4220 wild type/DeltatarO growth, OD600, 18 h, stronger effect = lower value, screened at 18.75 µg/mL (by protocol)
row,Structure (SMILES),survival
1,COc1ccccc1N1CCN(CCCNC(=O)c2cnn(-c3ccc(C)c(C)c3)c2C2CCN(C(=O)OC(C)(C)C)CC2)CC1,inactive: 68%
2,COc1ccccc1CNC(=O)c1cnc2c(-c3ccccc3)c(C)nn2c1C,inactive: 70%
3,O=C(c1ccc2c(c1)N(Cc1ccc(F)cc1)C(=O)c1ccccc1S2(=O)=O)N1CCN(c2ccccn2)CC1,inactive: 153%
4,COc1ccc(C(=O)Nc2ccccc2-c2nc(-c3ccc(OC)cc3)no2)cc1,inactive: 89%
5,O=C(c1cnc(N2CCCCC2)c2ccccc12)N1CCN(c2ccc(Cl)cc2)CC1,inactive: 73%
6,CCc1nn(CC(=O)N2CCN(c3ccc(Cl)cc3)CC2)c(=O)c2cc3occc3n12,inactive: 84%
7,CCn1c(=O)n(-c2cccc(Cl)c2)c(=O)c2sc3ccccc3c21,inactive: 86%
8,O=C(Nc1ccc(Cl)cc1)c1cc2nc(-c3ccc4c(c3)OCO4)cc(C(F)(F)F)n2n1,inactive: 77%
9,CC(=O)c1ccc(N2CCN(C(=O)c3cc4ccc5cccnc5c4[nH]3)CC2)cc1,inactive: 65%
10,Cc1ccc(C)c(S(=O)(=O)NCCc2csc(-c3ccc(Cl)cc3)n2)c1,inactive: 78%
11,Cc1cccc(NC(=O)C2CCCN(S(=O)(=O)c3ccc4c(c3)oc(=O)n4C)C2)c1 (stereo not drawn),inactive: 82%
12,O=S(=O)(NCCS(=O)(=O)N1CCN(c2ccccc2)CC1)c1ccc(Cl)cc1,inactive: 82%
13,Cc1sc2c(c1C)c(=O)n(CCc1ccccc1)c(=O)n2Cc1ccc(F)cc1,inactive: 50%
14,COc1ccc(CCN2CC(C(=O)NCCc3ccccc3)CC2=O)cc1OC (stereo not drawn),inactive: 81%
15,COc1ccc(OC)c(/C=C(\C#N)c2nc3ccccc3c(=O)[nH]2)c1,inactive: 134%
16,O=C(CCC(=O)c1ccccc1)Nc1ccc(F)c(Cl)c1,inactive: 73%
17,Cc1ccc(-c2noc(=O)n2CC(=O)Nc2ccc(S(=O)(=O)N3CCCC3)cc2)cc1,inactive: 123%
18,CCCC(=O)C1=C(c2cccc(OC)c2)N(C(=O)CCC)n2c(C)nnc2S1,inactive: 80%
19,Cc1cc(C)c2sc(N(Cc3cccnc3)C(=O)CCOc3ccccc3)nc2c1,inactive: 111%
20,C=CCSc1nc2sc3c(c2c(=O)n1CC=C)CCCC3,inactive: 99%
21,CCOC(=O)c1ccc2c(c1)[C@@H]1C=CC[C@@H]1[C@H](c1cccc(OC)c1OC)N2,active: 0%
22,Cn1ccc2c(OCC(=O)Nc3ccc([N+](=O)[O-])cc3)cccc2c1=O,inactive: 131%

row,Structure (SMILES),survival
1,CSc1ccc(CNC(=O)CN2C(=O)C3CCCCN3c3ccc(C(=O)N4CCCC4)cc32)cc1 (stereo not drawn),inactive: 92%
2,CCOC(=O)C1CCN(C(=O)c2ccc3c(c2)sc2nc(-c4ccc(C)cc4)cn23)CC1,inactive: 118%
3,O=C(Cn1nc(-c2nccc3ccccc23)oc1=O)N1CCCc2ccccc21,inactive: 103%
4,COc1ccc(OCc2nnc(SCC(=O)N(C3CCCCC3)C3CCCCC3)o2)cc1,inactive: 98%
5,CCc1ccc(NC(=O)C2CCN(S(=O)(=O)c3c(C)noc3/C=C/c3ccco3)CC2)cc1,inactive: 73%
6,FC(F)(F)c1ccc(-c2noc(-c3ccccc3Br)n2)cc1,inactive: 89%
7,COc1ccc(NC(=O)c2cc(S(=O)(=O)NCCC3=CCCCC3)ccc2F)cc1,inactive: 87%
8,COC(=O)c1cc2sc(C)cc2n1CC(=O)Nc1cccc(SC)c1,inactive: 86%
9,Cc1cccc(OCC(=O)Nc2ccc3oc(-c4ccccc4F)nc3c2)c1,inactive: 81%
10,O=S(=O)(NCc1nc2cccnc2n1Cc1ccc(F)cc1)c1ccc(Cl)s1,active: -6%
11,COc1ccc(-c2nc3cc(C(C)C)ccc3o2)cc1NC(=O)c1ccc(C)c(Cl)c1,active: 5%
12,O=C(Cc1n[nH]c(=O)c2ccccc12)NCc1ccccc1,inactive: 103%
13,Cc1ccc(CCNC(=O)c2ccc(CS(=O)(=O)Cc3cccc(C)c3)o2)cc1,inactive: 70%
14,CCCCCC(=O)N(c1ccc(OCC)cc1)S(=O)(=O)c1ccc2c(c1)n(C)c(=O)n2C,inactive: 124%
15,COC(=O)C1CCN(S(=O)(=O)c2ccc(OC)cc2)CC1,inactive: 102%
16,COc1ccc(CNc2ccc(-c3ccc(OC)cc3)nn2)cc1,inactive: 114%
17,COc1ccc(Cn2ccc3nc(C)c(C(=O)N4CCN(c5ccccc5F)CC4)cc3c2=O)cc1,inactive: 45%
18,Cc1ccc(NC(=O)Cn2cc3c(n2)CCC(C)C3)cc1C (stereo not drawn),inactive: 94%
19,Cn1c(=S)[nH]c2c(c1=O)C1(CCCC1)Cc1ccccc1-2,inactive: 99%
20,CCn1ccc2cc(S(=O)(=O)N3CCCN(C(=O)NCC(=O)OC)CC3)ccc21,inactive: 128%
21,COc1cccc(-c2cc(C(F)(F)F)n3nc(C)c(-c4ccccc4)c3n2)c1,inactive: 85%
22,Cn1c(NN)nc2ccccc2c1=O,inactive: 100%

row,Structure (SMILES),survival
1,Cc1ccccc1C(=O)NC1(C(F)(F)F)N=C(c2ccccc2)N(Cc2ccccc2)C1=O (stereo not drawn),inactive: 130%
2,Nc1ccc(Cc2nc3ccccc3[nH]2)cc1,inactive: 102%
3,CCCCNC(=O)CSc1nc2cc3c(cc2c(=O)n1CCCCCC(=O)NCCc1ccc(OC)c(OC)c1)OCO3,inactive: 67%
4,Cc1ccc2nc(N3CCC(C(=O)NCc4ccc(F)cc4)CC3)[nH]c2c1,inactive: 70%
5,O=C(COc1ccccc1[N+](=O)[O-])Nc1cc(-c2nc3cc(Cl)ccc3o2)ccc1Cl,inactive: 79%
6,COC(=O)c1ccc(Oc2nc3c(c(=O)n(C)c(=O)n3C)n2C(C)C)cc1,inactive: 60%
7,CCc1ccccc1N(C)C(=O)c1nn(C)c2c1CSc1ccccc1-2,inactive: 84%
8,Cc1ccc2nc(COc3cccc(NC(=O)c4cccc(Cl)c4)c3)cc(=O)n2c1,inactive: 79%
9,Cc1cc(C)c(S(=O)(=O)NCc2csc(-c3ccccc3)n2)c(C)c1,inactive: 38%
10,CCC12CN3CC(C)(CN(C1)C3c1c[nH]c3ccc(OC)cc13)C2=O (stereo not drawn),inactive: 88%
11,OC1C2CN3CCN(C2)CC1(Cc1ccccc1)C3 (stereo not drawn),inactive: 110%
12,Cc1ccc2cccc(NC(=O)c3ccc(C#N)cc3F)c2n1,inactive: 144%
13,CCN(CC)C(=O)c1sc2c(c1C)c(=O)n(-c1ccc(C)c(C)c1)c(=O)n2Cc1cccc(Cl)c1,inactive: 65%
14,Cc1ccc(OCC(=O)Nc2ccc3nc(SCC(=O)N4CCOCC4)sc3c2)cc1C,inactive: 80%
15,CCOC(=O)C1CCCN(C(=O)CCS(=O)(=O)c2cc3c(cc2Cl)NC(=O)CO3)C1 (stereo not drawn),inactive: 96%
16,CCC(Sc1nc2cc3c(cc2c(=O)n1CCCC(=O)NCc1ccc(OC)cc1)OCO3)C(=O)NCCCOC (stereo not drawn),inactive: 69%
17,O=C1CN(C(=O)c2ccc(S(=O)(=O)N3CCCCC3)cc2)C(c2ccc(F)cc2)c2cc(Br)ccc2N1 (stereo not drawn),inactive: 100%
18,CCCC(=O)C1=C(N2CCN(C3=C(C(=O)CCC)C(=O)CC(C)(C)C3)CC2)CC(C)(C)CC1=O,inactive: 94%
19,Cc1ccccc1NC(=O)Cn1c(=O)n(CCC(=O)NCc2ccc3c(c2)OCO3)c(=O)c2sccc21,inactive: 138%
20,CC(=O)N1CCc2cc(CNS(=O)(=O)c3ccc(C(C)(C)C)cc3)ccc21,inactive: 79%
21,O=S1(=O)CCC(N2CCCCC2)C1 (stereo not drawn),inactive: 98%
22,Cc1ccc(NC(=O)C2CCN(c3ncccn3)CC2)cc1F,inactive: 92%

row,Structure (SMILES),survival
1,COC1=NS(=O)(=O)c2ccccc21,inactive: 104%
2,CCC(C(=O)N1CC2(C)CC1CC(C)(C)C2)N1C(=O)c2ccccc2C1=O (stereo not drawn),inactive: 105%
3,CCOc1ccccc1NC(=O)C(C)n1nnc2sc3c(c2c1=O)CCCC3 (stereo not drawn),inactive: 120%
4,COc1ccc(NC(=O)CSc2nc3ccccc3n2CC(=O)Nc2cccc(C)c2C)cc1,inactive: 136%
5,CCn1c(CNC(=O)C23CC4CC(CC(C4)C2)C3)nnc1SCC(=O)Nc1ccc(OC)cc1,inactive: 96%
6,O=C(COc1cccc(Cl)c1)N1CCC(c2nc3ccccc3s2)CC1,inactive: 37%
7,Cc1ccc(CCNC(=O)c2ccc(Cn3c(=O)c4cccn4c4cccnc43)cc2)cc1,inactive: 82%
8,COc1cc(OC)c(NC(=O)Nc2sc3nc4n(c(=O)c3c2C)CCC(C)CC4)cc1Cl (stereo not drawn),inactive: 87%
9,Cc1ccc(-n2c(SCC(N)=O)nc3c(oc4ccccc43)c2=O)cc1,inactive: 65%
10,O=S(=O)(Nc1ccc(-c2ccc(N3CCCC3)nn2)cc1)c1ccccc1Cl,inactive: 87%
11,O=C(O)c1cccc(NC(=O)c2cccc(S(=O)(=O)Nc3cccc(F)c3)c2)c1,inactive: 169%
12,Cn1c(SCC(=O)N2c3ccccc3CCc3ccccc32)nnc1C1CC1,inactive: 96%
13,Cc1cc(C)cc(NC(=O)c2cc(S(=O)(=O)N3CCOCC3)cn2C)c1,inactive: 84%
14,Cc1cccc2cc(CN(C(=O)C(F)(F)F)C3CCCC3)c3nnnn3c12,inactive: 101%
15,Cc1ccc(N2CCN(c3nc4ccccc4n4nnnc34)CC2)c(C)c1,inactive: 85%
16,COc1cccc(C(=O)Nc2ccccc2SCc2cc(=O)c3cccc(C)c3[nH]2)c1,inactive: 59%
17,N#Cc1c[nH]n2c(NC3CCCC3)c(-c3ccc(Br)cc3)nc12,inactive: 84%
18,Cc1ccc(Cl)cc1N1CCN(C(=O)c2cnn(-c3ccc(Cl)cc3)c2C2CCNCC2)CC1,inactive: 83%
19,CCOc1ccc(C2c3c(oc4ccccc4c3=O)C(=O)N2Cc2ccc3c(c2)OCO3)cc1 (stereo not drawn),inactive: 31%
20,Cc1ccc(Nc2c(-c3ccc(N4CCOCC4)cc3)nc3ccc(Cl)cn23)cc1,inactive: 84%
21,Cc1cc2c(cc1S(=O)(=O)N1CCC(C(N)=O)CC1)OCC(=O)N2,inactive: 81%
22,Cc1cc(C)c(NC(=O)Cn2nnc(-c3nc(-c4ccncc4)no3)c2N)c(C)c1,inactive: 71%
